Reference: the supplement of paper PMC11876631
± gives the standard deviation of the averaged measurements. Laboratory Escherichia coli strains with one amino-acid change in an essential protein, pooled on minimal glucose agar with carbenicillin or gentamicin at twice the control MIC (plus kanamycin and chloramphenicol for the plasmids), 48 h. Fold change of barcode share against drug-free plates; higher = less susceptible. Active = above 20 in both replicates (the paper's putatively resistant). '<' = one read or none on drug, '>' = one read or none on a drug-free plate. Shares are relative, so most strains fall below 1 when a few take over. Listed are strains with at least 15 reads on both drug-free plates, and hits; most hits rest on fewer reference reads. Replicate rank correlation about 0.5. Edits are read from barcodes.

B1: murD V108A (protein)
chain: MADYQGKNVVIIGLGLTGLSCVDFFLARGVTPRVMDTRMTPPGLDKLPEAVERHTGSLNDEWLMAADLIVASPGIALAHPSLSAAADAGIEIVGDIELFCREAQAPIAAITGSNGKSTVTTLVGEMAKAAGVNVGVGGNIGLPALMLLDDECELYVLELSSFQLETTSSLQAVAATILNVTEDHMDRYPFGLQQYRAAKLRIYENAKVCVVNADDALTMPIRGADERCVSFGVNMGDYHLNHQQGETWLRVKGEKVLNVKEMKLSGQHNYTNALAALALADAAGLPRASSLKALTTFTGLPHRFEVVLEHNGVRWINDSKATNVGSTEAALNGLHVDGTLHLLLGGDGKSADFSPLARYLNGDNVRLYCFGRDGAQLAALRPEVAEQTETMEQAMRLLAPRVQPGDMVLLSPACASLDQFKNFEQRGNEFARLAKELG
B2: murD V108W (protein)
chain: MADYQGKNVVIIGLGLTGLSCVDFFLARGVTPRVMDTRMTPPGLDKLPEAVERHTGSLNDEWLMAADLIVASPGIALAHPSLSAAADAGIEIVGDIELFCREAQAPIWAITGSNGKSTVTTLVGEMAKAAGVNVGVGGNIGLPALMLLDDECELYVLELSSFQLETTSSLQAVAATILNVTEDHMDRYPFGLQQYRAAKLRIYENAKVCVVNADDALTMPIRGADERCVSFGVNMGDYHLNHQQGETWLRVKGEKVLNVKEMKLSGQHNYTNALAALALADAAGLPRASSLKALTTFTGLPHRFEVVLEHNGVRWINDSKATNVGSTEAALNGLHVDGTLHLLLGGDGKSADFSPLARYLNGDNVRLYCFGRDGAQLAALRPEVAEQTETMEQAMRLLAPRVQPGDMVLLSPACASLDQFKNFEQRGNEFARLAKELG
B3: murD V108Q (protein)
chain: MADYQGKNVVIIGLGLTGLSCVDFFLARGVTPRVMDTRMTPPGLDKLPEAVERHTGSLNDEWLMAADLIVASPGIALAHPSLSAAADAGIEIVGDIELFCREAQAPIQAITGSNGKSTVTTLVGEMAKAAGVNVGVGGNIGLPALMLLDDECELYVLELSSFQLETTSSLQAVAATILNVTEDHMDRYPFGLQQYRAAKLRIYENAKVCVVNADDALTMPIRGADERCVSFGVNMGDYHLNHQQGETWLRVKGEKVLNVKEMKLSGQHNYTNALAALALADAAGLPRASSLKALTTFTGLPHRFEVVLEHNGVRWINDSKATNVGSTEAALNGLHVDGTLHLLLGGDGKSADFSPLARYLNGDNVRLYCFGRDGAQLAALRPEVAEQTETMEQAMRLLAPRVQPGDMVLLSPACASLDQFKNFEQRGNEFARLAKELG
B4: murD V108D (protein)
chain: MADYQGKNVVIIGLGLTGLSCVDFFLARGVTPRVMDTRMTPPGLDKLPEAVERHTGSLNDEWLMAADLIVASPGIALAHPSLSAAADAGIEIVGDIELFCREAQAPIDAITGSNGKSTVTTLVGEMAKAAGVNVGVGGNIGLPALMLLDDECELYVLELSSFQLETTSSLQAVAATILNVTEDHMDRYPFGLQQYRAAKLRIYENAKVCVVNADDALTMPIRGADERCVSFGVNMGDYHLNHQQGETWLRVKGEKVLNVKEMKLSGQHNYTNALAALALADAAGLPRASSLKALTTFTGLPHRFEVVLEHNGVRWINDSKATNVGSTEAALNGLHVDGTLHLLLGGDGKSADFSPLARYLNGDNVRLYCFGRDGAQLAALRPEVAEQTETMEQAMRLLAPRVQPGDMVLLSPACASLDQFKNFEQRGNEFARLAKELG
B5: murD V108P (protein)
chain: MADYQGKNVVIIGLGLTGLSCVDFFLARGVTPRVMDTRMTPPGLDKLPEAVERHTGSLNDEWLMAADLIVASPGIALAHPSLSAAADAGIEIVGDIELFCREAQAPIPAITGSNGKSTVTTLVGEMAKAAGVNVGVGGNIGLPALMLLDDECELYVLELSSFQLETTSSLQAVAATILNVTEDHMDRYPFGLQQYRAAKLRIYENAKVCVVNADDALTMPIRGADERCVSFGVNMGDYHLNHQQGETWLRVKGEKVLNVKEMKLSGQHNYTNALAALALADAAGLPRASSLKALTTFTGLPHRFEVVLEHNGVRWINDSKATNVGSTEAALNGLHVDGTLHLLLGGDGKSADFSPLARYLNGDNVRLYCFGRDGAQLAALRPEVAEQTETMEQAMRLLAPRVQPGDMVLLSPACASLDQFKNFEQRGNEFARLAKELG
B6: murD L178A (protein)
chain: MADYQGKNVVIIGLGLTGLSCVDFFLARGVTPRVMDTRMTPPGLDKLPEAVERHTGSLNDEWLMAADLIVASPGIALAHPSLSAAADAGIEIVGDIELFCREAQAPIVAITGSNGKSTVTTLVGEMAKAAGVNVGVGGNIGLPALMLLDDECELYVLELSSFQLETTSSLQAVAATIANVTEDHMDRYPFGLQQYRAAKLRIYENAKVCVVNADDALTMPIRGADERCVSFGVNMGDYHLNHQQGETWLRVKGEKVLNVKEMKLSGQHNYTNALAALALADAAGLPRASSLKALTTFTGLPHRFEVVLEHNGVRWINDSKATNVGSTEAALNGLHVDGTLHLLLGGDGKSADFSPLARYLNGDNVRLYCFGRDGAQLAALRPEVAEQTETMEQAMRLLAPRVQPGDMVLLSPACASLDQFKNFEQRGNEFARLAKELG
B7: murD L178Q (protein)
chain: MADYQGKNVVIIGLGLTGLSCVDFFLARGVTPRVMDTRMTPPGLDKLPEAVERHTGSLNDEWLMAADLIVASPGIALAHPSLSAAADAGIEIVGDIELFCREAQAPIVAITGSNGKSTVTTLVGEMAKAAGVNVGVGGNIGLPALMLLDDECELYVLELSSFQLETTSSLQAVAATIQNVTEDHMDRYPFGLQQYRAAKLRIYENAKVCVVNADDALTMPIRGADERCVSFGVNMGDYHLNHQQGETWLRVKGEKVLNVKEMKLSGQHNYTNALAALALADAAGLPRASSLKALTTFTGLPHRFEVVLEHNGVRWINDSKATNVGSTEAALNGLHVDGTLHLLLGGDGKSADFSPLARYLNGDNVRLYCFGRDGAQLAALRPEVAEQTETMEQAMRLLAPRVQPGDMVLLSPACASLDQFKNFEQRGNEFARLAKELG
B8: murD L178D (protein)
chain: MADYQGKNVVIIGLGLTGLSCVDFFLARGVTPRVMDTRMTPPGLDKLPEAVERHTGSLNDEWLMAADLIVASPGIALAHPSLSAAADAGIEIVGDIELFCREAQAPIVAITGSNGKSTVTTLVGEMAKAAGVNVGVGGNIGLPALMLLDDECELYVLELSSFQLETTSSLQAVAATIDNVTEDHMDRYPFGLQQYRAAKLRIYENAKVCVVNADDALTMPIRGADERCVSFGVNMGDYHLNHQQGETWLRVKGEKVLNVKEMKLSGQHNYTNALAALALADAAGLPRASSLKALTTFTGLPHRFEVVLEHNGVRWINDSKATNVGSTEAALNGLHVDGTLHLLLGGDGKSADFSPLARYLNGDNVRLYCFGRDGAQLAALRPEVAEQTETMEQAMRLLAPRVQPGDMVLLSPACASLDQFKNFEQRGNEFARLAKELG
B9: murD L178P (protein)
chain: MADYQGKNVVIIGLGLTGLSCVDFFLARGVTPRVMDTRMTPPGLDKLPEAVERHTGSLNDEWLMAADLIVASPGIALAHPSLSAAADAGIEIVGDIELFCREAQAPIVAITGSNGKSTVTTLVGEMAKAAGVNVGVGGNIGLPALMLLDDECELYVLELSSFQLETTSSLQAVAATIPNVTEDHMDRYPFGLQQYRAAKLRIYENAKVCVVNADDALTMPIRGADERCVSFGVNMGDYHLNHQQGETWLRVKGEKVLNVKEMKLSGQHNYTNALAALALADAAGLPRASSLKALTTFTGLPHRFEVVLEHNGVRWINDSKATNVGSTEAALNGLHVDGTLHLLLGGDGKSADFSPLARYLNGDNVRLYCFGRDGAQLAALRPEVAEQTETMEQAMRLLAPRVQPGDMVLLSPACASLDQFKNFEQRGNEFARLAKELG
B10: murE F204A (protein)
chain: MADRNLRDLLAPWVPDAPSRALREMTLDSRVAAAGDLFVAVVGHQADGRRYIPQAIAQGVAAIIAEAKDEATDGEIREMHGVPVIYLSQLNERLSALAGRFYHEPSDNLRLVGVTGTNGKTTTTQLLAQWSQLLGEISAVMGTVGNGLLGKVIPTENTTGSAVDVQHELAGLVDQGATFCAMEVSSHGLVQHRVAALKFAASVATNLSRDHLDYHGDMEHYEAAKWLLYSEHHCGQAIINADDEVGRRWLAKLPDAVAVSMEDHINPNCHGRWLKATEVNYHDSGATIRFSSSWGDGEIESHLMGAFNVSNLLLALATLLALGYPLADLLKTAARLQPVCGRMEVFTAPGKPTVVVDYAHTPDALEKALQAARLHCAGKLWCVFGCGGDRDKGKRPLMGAIAEEFADVAVVTDDNPRTEEPRAIINDILAGMLDAGHAKVMEGRAEAVTCAVMQAKENDVVLVAGKGHEDYQIVGNQRLDYSDRVTVARLLGVIA
B11: murE F204W (protein)
chain: MADRNLRDLLAPWVPDAPSRALREMTLDSRVAAAGDLFVAVVGHQADGRRYIPQAIAQGVAAIIAEAKDEATDGEIREMHGVPVIYLSQLNERLSALAGRFYHEPSDNLRLVGVTGTNGKTTTTQLLAQWSQLLGEISAVMGTVGNGLLGKVIPTENTTGSAVDVQHELAGLVDQGATFCAMEVSSHGLVQHRVAALKFAASVWTNLSRDHLDYHGDMEHYEAAKWLLYSEHHCGQAIINADDEVGRRWLAKLPDAVAVSMEDHINPNCHGRWLKATEVNYHDSGATIRFSSSWGDGEIESHLMGAFNVSNLLLALATLLALGYPLADLLKTAARLQPVCGRMEVFTAPGKPTVVVDYAHTPDALEKALQAARLHCAGKLWCVFGCGGDRDKGKRPLMGAIAEEFADVAVVTDDNPRTEEPRAIINDILAGMLDAGHAKVMEGRAEAVTCAVMQAKENDVVLVAGKGHEDYQIVGNQRLDYSDRVTVARLLGVIA

target: Escherichia coli (laboratory strain); experiment: barcode share on antibiotic plates over drug-free plates; higher = less susceptible; details: antibiotic: carbenicillin; 2× MIC (3.1 µg/mL)
Protocol: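 A pool of E. coli strains, each edited to carry one amino-acid change in an essential protein, was grown for 48 h on minimal glucose agar with or without antibiotic; strain barcodes were sequenced; mean of two replicates.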

Which “fold change of barcode share” value does the source give for B1 here?
Its value is 0.361 ± 0.15.

With B2 as the protein, how does the “fold change of barcode share” value read?
Its value is 0.79 ± 0.2.

Which “fold change of barcode share” value does the source give for B3 here?
The value was 0.36 ± 0.23.

How did the “fold change of barcode share” value turn out when B4 was run?
The value was 0.366 ± 0.22.

For B5, which “fold change of barcode share” value is on record?
The value was 0.426 ± 0.35.

Which “fold change of barcode share” value does the source give for B6 here?
Its value is 0.199 ± 0.0036.

For B7, which “fold change of barcode share” value is on record?
Its value is 0.175 ± 0.01.

How did the “fold change of barcode share” value turn out when B8 was run?
The value was 0.367 ± 0.17.

Which “fold change of barcode share” value does the source give for B9 here?
The value was 0.536 ± 0.47.

For B10, which “fold change of barcode share” value is on record?
Its value is 0.338 ± 0.011.

With B11 as the protein, how does the “fold change of barcode share” value read?
Its value is 0.363 ± 0.11.

same assay, conditions: antibiotic: gentamicin; 2× MIC (MIC 0.45 µg/mL)

With B1 as the protein, how does the “fold change of barcode share” value read?
Its value is less than 0.00657.

How did the “fold change of barcode share” value turn out when B2 was run?
Its value is less than 0.00688.

For B3, which “fold change of barcode share” value is on record?
The value was less than 0.00807.

How did the “fold change of barcode share” value turn out when B4 was run?
Its value is less than 0.00965.

B5 was tested. Which “fold change of barcode share” value did it give?
The value was less than 0.00974.

For B6, which “fold change of barcode share” value is on record?
Its value is less than 0.00662.

B7 was tested. Which “fold change of barcode share” value did it give?
The value was less than 0.00624.

How did the “fold change of barcode share” value turn out when B8 was run?
The value was 0.018 ± 0.0079.

B9 was tested. Which “fold change of barcode share” value did it give?
The value was less than 0.016.

How did the “fold change of barcode share” value turn out when B10 was run?
Its value is 0.0114 ± 0.0058.

How did the “fold change of barcode share” value turn out when B11 was run?
Its value is less than 0.0163.
